Assay results: PubChem BioAssay AID1159614 (National Center for Advancing Translational Sciences (NCATS), 2016)
Hit rate of the full screen: of about 45,000 compounds, about 65 (0.1%) were called active. The call rests on the fitted dose curve; in most records, active means well fitted activation curve with a large enough effect; inconclusive means small, poorly fitted or top-dose-only effect; inactive means no such curve, though single readings can be large or run the other way. This is one part of the list.

Target: Galactocerebrosidase (Homo sapiens) (UniProt P54803)
Assay: A Novel Cell-Based Assay to Identify Small Molecules for B -Galactocerebrosidase; further: 0% is about no effect; nearly all actives have a fitted effect of over 65% in size
Details: 145M-Twi-hGALC-G270D cells, HMU-beta-Gal fluorescence, 48 h; series mostly up to 57.5 µM; activation: at the top concentration
Procedure, shortened: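 qHTS, 1536-well; 145M-Twi-hGALC-G270D cells (WT line also made) in DMEM/F12 + 10% FBS; compound incubation on live cells; HMU-β-gal 0.1 mM final, pH 5.2, NaTC; carbonate stop; fluorescence increase = enhanced residual activity.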

UniProt P54803, sequence (P54803 whole entry, looked up): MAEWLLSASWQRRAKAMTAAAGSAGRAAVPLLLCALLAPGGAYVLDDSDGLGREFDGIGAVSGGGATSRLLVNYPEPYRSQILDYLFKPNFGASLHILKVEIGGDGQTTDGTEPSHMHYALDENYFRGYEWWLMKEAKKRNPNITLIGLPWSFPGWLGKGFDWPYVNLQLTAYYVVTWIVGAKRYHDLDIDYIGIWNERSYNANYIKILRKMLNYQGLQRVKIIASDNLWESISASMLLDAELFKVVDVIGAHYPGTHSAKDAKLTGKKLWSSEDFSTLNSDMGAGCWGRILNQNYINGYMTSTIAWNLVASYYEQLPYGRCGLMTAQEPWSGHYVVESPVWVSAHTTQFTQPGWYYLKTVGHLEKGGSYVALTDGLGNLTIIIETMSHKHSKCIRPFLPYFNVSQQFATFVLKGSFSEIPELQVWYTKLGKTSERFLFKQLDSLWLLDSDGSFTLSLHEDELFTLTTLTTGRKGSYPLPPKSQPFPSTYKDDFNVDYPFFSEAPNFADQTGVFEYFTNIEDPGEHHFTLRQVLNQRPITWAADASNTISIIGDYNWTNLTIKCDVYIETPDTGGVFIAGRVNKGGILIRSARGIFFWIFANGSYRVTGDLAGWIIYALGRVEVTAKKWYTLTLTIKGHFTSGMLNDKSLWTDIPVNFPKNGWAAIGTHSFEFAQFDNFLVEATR

activation, inactive:
CCOc1ccccc1NC(=O)CN1c2ccccc2S(=O)(=O)c2ccccc21 -14.4%
Cc1ccc(CNC(=O)c2cc(S(=O)(=O)N3CCCCCC3)cn2C)cc1 -11.3%
CCOc1ccc(NS(=O)(=O)c2ccc3[nH]cc(C(=O)NCc4ccccc4)c(=O)c3c2)cc1 -14.4%
Cc1cccc(CNC(=O)c2ccc3c(c2)N(C)C(=O)C2CCCCN32)c1 (stereo not drawn) -0.99%
COc1ccc(CNS(=O)(=O)c2cnc(N)nc2)cc1 -10.8%
CCCCC(=O)OC1=C(C(=O)c2ccccc2)N(C)S(=O)(=O)c2ccccc21 -12.5%
Cn1nc(-c2ccc(C(=O)Nc3cccc(C(F)(F)F)c3)cc2)c2ccccc2c1=O -7.38%
CCCCCCCCNC(C)C(O)c1ccc(SC(C)C)cc1 (stereo not drawn) -18.3%
CCOc1ccccc1NC(=O)C1CCN(S(=O)(=O)c2ccc3[nH]c4c(c3c2)CCCCC4)CC1 -10.6%
Cc1nn(C)c(C)c1S(=O)(=O)N(CC(=O)N1CCN(c2ccccc2)CC1)c1ccc(C(C)C)cc1 -12.8%
Cc1nc(-c2ccc(C)c(S(=O)(=O)N3CCC(C(=O)Nc4ccc(Cl)cc4)CC3)c2)no1 -33.9%
COc1ccc(NC(=O)c2sc3nc4c(cc3c2N)CCCCCC4)cc1OC -10.3%
Cc1ccccc1NC(=O)c1ccc(F)c(S(=O)(=O)N(C)C2CCCCC2)c1 0.182%
CCCCCNC(=O)c1ccc2c(c1)nc(C)n2-c1cccc(C)c1 -17.2%
O=C(CCn1c(=O)c2cccn2c2ccccc21)Nc1ccc(F)cc1 -7.98%
COc1ccccc1NC(=O)c1cc2c([nH]c1=O)CC(C)(C)CC2=O -9.44%
Cc1cc(C)n(-c2nnc(Nc3cc(Cl)ccc3C)c3ccccc23)n1 -9.23%
O=C(NCc1cccs1)c1ccc(CSc2nc3cccnc3n2Cc2ccccc2)cc1 -1.87%
O=C1C2=C(Nc3ccccc3SC2c2ccccc2C(F)(F)F)c2ccccc21 (stereo not drawn) -17%
Cc1ccc(C)c(NC(=O)Cn2c(=O)ccc3cc(S(=O)(=O)N4CCCC4)ccc32)c1 -18.6%
COc1ccc(CNC(=O)C2CCN(S(=O)(=O)c3ccc(C)cc3)CC2)cc1 17.4%
CCN1CCN(C(c2ccccc2)c2c(O)cc(C)n(Cc3ccco3)c2=O)CC1 (stereo not drawn) -16.3%
N#C/C(=C/c1ccc(Cl)cc1Cl)c1nc2ccccc2c(=O)[nH]1 -11.6%
CC1Cc2cc(S(=O)(=O)N(C)c3ccc(Br)cc3)ccc2N1C(=O)C1CC1 (stereo not drawn) -13.5%
Fc1ccc(Cc2cn3cc(-c4ccc(Cl)cc4)nc3s2)cc1 -8.01%
COc1ccc(NC(=O)C2CCCN(S(=O)(=O)c3cccs3)C2)cc1 (stereo not drawn) -27.5%
CCC1CCCCN1CCCNC(=O)c1cc2c(=O)n(CC)c3ccccc3c2s1 (stereo not drawn) -14.6%
CCOC(=O)c1nnn(CC(=O)NC(=O)Nc2cccc(CC)c2)c1C(=O)OCC -15.2%
CCN(CC)C(=O)c1sc2c(c1C)c(=O)n(-c1ccc(Cl)c(Cl)c1)c(=O)n2CC(=O)Nc1cccc(OC)c1 -1.92%
O=C(COc1ccc(Cl)cc1)NCCc1csc(-c2ccc(F)cc2)n1 -4.19%
COc1ccc(-c2nnc3c4ccccc4c(-c4ccccc4)nn23)cc1 4.2%
CCOc1ccc(CCNC(=O)c2cccc(-n3c(C)nc4cccnc43)c2)cc1 1.47%
COC(=O)c1c(N)n(-c2ccc(OC)c(Cl)c2)c2nc3ccccc3nc12 0.895%
O=C(Nc1ccccc1F)c1ccc(-c2ccccc2)s1 5.97%
COc1ccc(Nc2ncc3c(n2)CCN(C(=O)OC(C)(C)C)C3)cc1 -8.04%
COc1ccccc1CN1CCN(C2CCN(C(=O)NC(C)C)CC2)C(=O)C1=O -14%
CN(Cc1ccc(C(C)(C)C)cc1)Cc1cccc2ccccc12 -7.71%
Cc1ccc(CCNC(=O)c2cc(-c3ccc(Cl)cc3)n[nH]2)cc1 -19.2%
Cc1ccc(Nc2cc(C(=O)NCc3cccs3)c3ccccc3n2)c(C)c1 -11.9%
Cc1ccc(NC(=O)Cc2coc3c(C)c(C)ccc23)cc1Cl -17.8%
Cc1ccc(NC(=O)c2ccc3[nH]c(C)cc(=O)c3c2)c(C)c1 -15.6%
COc1cc2ccccc2cc1C(=O)Nc1ccc2oc(-c3ccccc3)nc2c1 -14.9%
CCOc1ccccc1C(=O)N(Cc1cccs1)c1ccc(Cl)cc1 -6.7%
Cc1ccccc1CNC(=O)CCC(=O)N1CC2CCCN2c2ccccc21 (stereo not drawn) 0.741%
CCc1ccc2c(c1)-c1ccccc1S(=O)(=O)N2CC(=O)N1CCC(C)CC1 -9.86%
COc1cccc(Cn2c(CNS(=O)(=O)c3ccc4c(c3)CCCC4)nc3cccnc32)c1 -3.26%
CC1CCN(S(=O)(=O)c2ccc3c(c2)N(CC(=O)N2CCN(c4ccccc4)CC2)C(=O)CO3)CC1 2.4%
COc1ccccc1CNc1ncnc2c1c(-c1ccccc1)cn2-c1cccc(C)c1 -4.1%
COc1ccccc1C(=O)Nc1nc2nc(C)c(Cc3ccccc3)c(=O)n2[nH]1 -9.78%
CC(=O)c1ccc(NC(=O)Cn2ncc3c(C)n(Cc4ccc(F)cc4)c(C)c3c2=O)cc1 -15.1%
CCN(CC)C(=O)CSc1nc2ccccc2c(=O)n1Cc1ccco1 -5.86%
CCCc1nccn1S(=O)(=O)c1cc(Br)ccc1OC -21%
COc1ccc(Cl)cc1NC(=O)N1CC(=O)Nc2sc3c(c2C1c1ccccc1)CCCC3 (stereo not drawn) -13.8%
Cc1ccc(NC(=O)Cn2c(-c3cncs3)nc3ccccc32)cc1Br -9.31%
COc1ccc(NC(=O)CN2C(=O)CCc3cc(S(=O)(=O)N4CCOCC4)ccc32)cc1Cl -11.5%
CCN(C(=O)Cn1c(=O)n(CC2CCC(C(=O)NC)CC2)c(=O)c2sccc21)c1ccccc1 (stereo not drawn) -7.41%
COc1cc2c(C(=O)N(C)c3cc(Cl)ccc3OC)cn(CC(C)C)c(=O)c2cc1OC -9.75%
Cc1nn(CCCC(=O)Nc2cccc(F)c2)c(=O)c2c1sc1ccccc12 -8.75%
O=C(Nc1ccccc1)c1cn(-c2ccccc2)nc1-c1ccccc1 -12.4%
COc1ccccc1NC(=O)CSC1=Nc2ccccc2N=C(c2ccc(F)cc2)C1 -9.35%
Cc1cccc(-n2c3nc(=O)[nH]c(=O)c-3cc3c(C)nn(-c4ccccc4)c32)c1C -9.19%
Cc1oc(C)c2c(=O)cc(-c3ccc4c(c3)OCO4)cc(OC(=O)c3ccc(Cl)cc3)c12 -3.59%
Cc1ccc(CNC(=O)c2ccc3c(c2)N(Cc2cccc(C)c2)C(=O)CS3)cc1 -11%
